Measured values from PubChem BioAssay AID686978 (National Center for Advancing Translational Sciences (NCATS), 2013).
Out of some 420,000 compounds screened, about 64,000 (15%) were called active. Inconclusive means that the source gave no clear call. Such entries were picked first, then a sample of the others. Calls follow the shape of the dose curve; as a rule, active = well fitted inhibition curve with a large enough effect; inconclusive = small, poorly fitted or top-dose-only effect; inactive = flat fitted curve, though single readings scatter. No potency is given beside an inconclusive call; the fits are too rough.

Assay: qHTS for Inhibitors of human tyrosyl-DNA phosphodiesterase 1 (TDP1): qHTS in cells in absence of CPT; also: nearly all actives have a fitted effect of over 55% in size
Details: DT40 Tdp1-/- hTDP1 cells, no CPT, ATP luminescence, 48 h; activity change, negative = growth inhibition: at 46.2 µM (top of the series) unless noted
Procedure, shortened: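 Chicken DT40 Tdp1-/- cells complemented with human TDP1, screened without camptothecin (DMSO vehicle only), 400 cells/well. Compounds pin-transferred, cells incubated at 37 °C for at least 48 hr. Growth read as ATP-dependent luminescence (CellTiter-Glo, 30 min at RT).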
% is scaled to controls: 0 for no effect and ±100 for the full control effect; potency is read from the fitted curve at half-maximal effect; tags tell the direction and shape of the fitted curve.

| SMILES | Potency | activity change, negative = growth inhibition |
| --- | --- | --- |
| CCOC(=O)C1C(C(=O)OC)=C(c2ccc(F)cc2)c2ccccc2N1S(=O)(=O)C(F)(F)F (stereo not given) | inconclusive [inhibitor, single point] | – |
| CCN1CCN(CCOc2ccccc2OCc2ccccc2)CC1 | inconclusive [inhibitor, partial curve] | – |
| FC(F)(F)c1ccc(Cl)c(NC(=S)N/N=C/c2ccccc2C(F)(F)F)c1 | inconclusive [inhibitor, single point] | – |
| Brc1ccc2c(c1)[C@H]1OCC[C@H]1[C@@H](c1cccs1)N2 | inconclusive [inhibitor, single point] | – |
| Cc1nonc1CN(C)C(=O)CC1C(=O)NCCN1Cc1cccc(C(F)(F)F)c1 (stereo not given) | – | inactive: -12.4% |
| O=C(Nc1ccccc1)OCCc1ccccn1 | – | inactive: -3.6% |
| CCOc1ccc(NC(=O)CC2C(=O)N(c3ccc(F)cc3)C(=O)N2CCc2sccc2C)cc1 (stereo not given) | active: 23.1 µM | – |
| CCC(=O)N1CCc2cc(Br)cc(S(=O)(=O)CCC(=O)N(C)c3cccc(C)c3)c21 | – | inconclusive: -30.7% [inhibitor] |
| CCCCN(C(=O)C1CC1)C1CCS(=O)(=O)C1 (stereo not given) | – | inactive: -5.6% |
| Cn1nc(C(=O)Nc2cccc(S(=O)(=O)N3CCCC3)c2)c2ccccc2c1=O | inconclusive [inhibitor, single point] | – |
| COc1ccc(C2C(=O)N(C3CCC(C)CC3)CC(=O)N2C2CCCCC2)cc1OC (stereo not given) | inconclusive [inhibitor, single point] | – |
| Fc1ccccc1N1CCN(c2ncnc3c2nc2n3CCCCC2)CC1 | inconclusive [inhibitor, single point] | – |
| COc1cccc(C=NNc2nc3ccccc3s2)c1OC | inconclusive [inhibitor, partial curve] | – |
| Cc1nc(Nc2ccccc2C(F)(F)F)sc1C(=O)N(C)C | – | inconclusive: -31.2% [inhibitor] |
| CCN(C1=NS(=O)(=O)c2ccccc21)N(CC)S(=O)(=O)c1ccc(C)cc1 | inconclusive [inhibitor, partial curve] | – |
| O=c1[nH]c(-c2ccc3c(c2)OCO3)nc2c1sc(=S)n2-c1ccccc1 | inconclusive [inhibitor, full curve] | – |
| CC(=O)Nc1ccc(N2C(=O)c3cccc(NC(C)=O)c3C2=O)cc1 | inconclusive [inhibitor, single point] | – |
| CCOC(=O)[C@H]1[C@H]2COc3cc(OC)ccc3[C@@H]2N2C(=O)N(c3cccc(Cl)c3)C(=O)[C@@]12C | active: 29.1 µM | – |
| CCOC(=O)C(=Cc1ccccc1)C(=O)c1ccccc1 | inconclusive [inhibitor, single point] | – |
| CC(C)COc1ccc(-c2nnc(-c3ccncc3)o2)cc1 | inconclusive [inhibitor, single point] | – |
| Cc1ccc(N)cc1NC(=O)CN1CCOCC1 | – | inactive: 3.55% |
| COc1ccc2[nH]c(=O)c(CN(CC3CCCO3)C(=O)Nc3ccc(F)cc3)cc2c1 (stereo not given) | active: 11.6 µM | – |
| C=C(C)COc1ccc(-c2nc(N)ncc2Oc2ccc(OC)cc2)c(O)c1 | active: 29.1 µM | – |

| SMILES | Potency | activity change, negative = growth inhibition |
| --- | --- | --- |
| CCCCOc1ccc(C(=O)Nc2ccc(CN3CCOCC3)cc2)cc1 | inconclusive [inhibitor, partial curve] | – |
| CC(C)CC(N)c1csc(NC(=O)Nc2ccccc2C(C)C)n1 (stereo not given) | active: 14.6 µM | – |
| CCCS(=O)(=O)NCCc1csc2nc(-c3ccc(C)cc3)nn12 | active: 23.1 µM | – |
| COc1ccc(/C(N)=N/OC(=O)CCC2CCCC2)cc1 | – | inactive: 1.78% |
| COc1cc(SC)ccc1C(=O)N1CCN(c2ccccc2OC)CC1 | active: 4.61 µM | – |
| Cc1occc1-c1nnc(SCC(=O)NCc2ccc3c(c2)OCO3)n1CC(C)C | – | inconclusive: -31.3% [inhibitor] |
| O=C(Nc1cccc(NC(=O)c2cncc(Br)c2)c1)c1cncc(Br)c1 | active: 4.61 µM | – |
| CC(NC(=S)NCCCN1CCOCC1)C1CC2CCC1C2 (stereo not given) | inconclusive [inhibitor, single point] | – |
| COCc1cccc(-c2csc(C(NC(C)=O)c3cccc(OC)c3)n2)c1 (stereo not given) | inconclusive [inhibitor, single point] | – |
| Nc1nc(N)nc(Cc2ccccc2O)n1 | – | inactive: 22% |
| COC(=O)[C@@]12C[C@@H](CC(=O)NCc3cccc(C(F)(F)F)c3)C(=O)N(Cc3ccc4c(c3)OCO4)C1=CCC(C)(C)C2 | active: 18.4 µM | – |
| CCCCC(=O)N/N=C(C)/C=C/c1ccccc1F | inconclusive [inhibitor, single point] | – |
| CCOC(=O)c1c(-c2cccc([N+](=O)[O-])c2)csc1NC(=O)CCCOc1ccccc1OC | inconclusive [inhibitor, single point] | – |
| Cc1cc(C)c(C#N)c(SCC2COc3ccccc3O2)n1 (stereo not given) | inconclusive [inhibitor, single point] | – |
| c1ccc(CCNc2nnnn2-c2ccccc2)cc1 | inconclusive [inhibitor, single point] | – |
| Cc1cc(S(=O)(=O)c2ccc([N+](=O)[O-])cn2)ccc1Br | active: 0.326 µM | – |
| CCOc1ccc(NC(=O)C2CCCN(c3nn4cc(-c5ccc(OC)cc5)nc4s3)C2)cc1 (stereo not given) | active: 10.3 µM | – |
| CCn1nnc(-c2ccccc2NS(=O)(=O)c2ccc(S(=O)(=O)N(C)C3CCCCC3)cc2)n1 | inconclusive [inhibitor, single point] | – |
| O=C(CCNC(=O)C1CCN(S(=O)(=O)c2ccc(F)cc2)CC1)NCc1ccccn1 | – | inactive: -0.0862% |
| CCOC(=O)N1CCN(C(=O)c2cc(COc3cccc(C(C)=O)c3)on2)CC1 | inconclusive [inhibitor, partial curve] | – |
| CN(C)C1=C2C=CC=CC2/C(=C2/C=Cc3ccccc32)C=C1 (stereo not given) | inconclusive [inhibitor, single point] | – |
| CN(CC(=O)Nc1cccc(F)c1)C(=O)C1CCN(S(=O)(=O)c2ccc3c(c2)OCCO3)CC1 | inconclusive [inhibitor, single point] | – |
